# Measurements reported in ChEMBL document CHEMBL4888484, “Replenishing the malaria drug discovery pipeline: Screening and hit evaluation of the MMV Hit Generation Library 1 (HGL1) against asexual blood stage Plasmodium falciparum ,using a nano luciferase reporter read-out” (2022).
# Out of some 150,000 compounds screened, about 540 (0.36%) showed an effect of 50% or more. This is one part of the list.
# Test system: Plasmodium falciparum
# Assay: Primary screen in NF54 nanoGlo assay, in single point, at 2uM, 72h; a lower Z score goes with more inhibition
# Format: functional, Erythrocyte
# Settings: timepoint 72 hour
Structure (SMILES),% Inhibition [%],Z score
CC(=O)Nc1ccc(C(=O)N[C@H]2CCCC[C@H]2CC(F)(F)F)nc1,-10,1.28
C[C@H](OCC1CC1)C(=O)N1CCN(c2ncccn2)CC1,-4,0.65
COc1ccccc1CNC(=O)c1cnc(N2CCOCC2)nc1N,-5,0.52
CC1(CNC(=O)c2ccccn2)CCOCC1,-9,1.55
Cc1ccc(OCc2cc(C(=O)N(C)[C@@H](C)c3c(C)nn(C)c3C)no2)cn1,1,-0.11
CCN(CC)Cc1nc(-c2ccsc2)no1,-2,0.19
Cn1cc(N2C[C@@H](C(=O)N3CC(C(F)(F)F)C3)CCC2=O)cn1,-4,0.62
CN(C)C(=O)N1CCC2(CC1)C(=O)N(CC(=O)NCc1ccc(F)cc1)CN2c1ccccc1,-9,0.88
Cc1ccc(NC[C@H]2CCN(c3cc(C)nc(N)n3)C2)nc1,10,-1.52
O=C(CS(=O)(=O)C1CC1)N1CCN2CCOc3cccc1c32,-10,1.64
CCN1CCN(C(=O)c2cccc(-c3cc(N)nc(N(CC)CC)n3)c2)CC1,-5,0.71
CCC1CCCCC1OCC(=O)NC1COc2ccccc2C1=O (stereo not given),-3,0.44
CC(C)C(=O)N1CCCCC[C@H]1c1nnc(-c2ccccc2)o1,-8,1.56
CCN(CC)C(=O)[C@@H]1CCC[C@@H](NCc2cccc(Cl)c2)CN(C)C(=O)C1,-7,1.31
CN(C(=O)Nc1cn[nH]c1)[C@H](c1ccncc1)c1ccc(Cl)cc1,-2,0.24
CCc1ccc(-c2cc(C(F)(F)F)on2)cc1S(=O)(=O)N1CCN(c2cccc(Cl)c2)CC1,-7,1.19
Cc1nc2cc(CNC(=O)c3ccccc3N3CCCC3)ccc2n1C,-16,3.08
O=C(c1cc(Cl)c[nH]1)N1CCO[C@H](c2ncon2)C1,33,-3.68
CC(=O)c1c(F)cccc1N1CCC[C@H](CN2CCOCC2)C1,-7,0.74
CN1CC[C@H](N(C)Cc2cnc(-c3ccccc3)s2)C1,3,-0.44
CNC(=O)[C@@H]1C[C@H](n2cc(-c3ccc(CN4Cc5ccccc5C4)cc3)nn2)CN1,-6,0.81
Cc1nc2ncnn2c(N2CCN(Cc3ccc(C(C)(C)C)cc3)CC2)c1Cc1ccccc1,1,-0.13

Structure (SMILES),% Inhibition [%],Z score
CCc1ccccc1C(=O)NC[C@H]1CC[C@H](CN)CC1,39,-4.41
O=C(c1ccc2c(c1)CCCC2)N1CCC[C@H]1c1nc2ccccc2s1,2,-0.19
COc1ccccc1-c1nc2cnccn2c1NCCC(=O)N1CCCC1,-24,3.39
C#CCN(CC#N)C(=O)c1c(F)cccc1Br,5,-0.57
CCCNC(=O)Nc1cccc(OC(=O)Cc2c(C)nn(C)c2C)c1,-11,1.1
O=C1NCCc2ccc(CNC(=O)c3ccc(C4CC4)nc3O)cc21,-13,2.13
Nc1nccnc1C(=O)Nc1cccc(N2CCCC2=O)c1,-12,2.25
O=C(Nc1ccc(-n2cnnn2)cc1)c1cnccn1,-11,1.8
CC(=O)NCCc1nc(CC(C)C)nn1-c1ccccn1,12,-1.6
COc1ccc(C(=O)N2CCC(C(=O)NC(C3CC3)C3CC3)CC2)c2ccccc12,-6,0.93
NC(=O)c1cc(NC(=O)C2=NN(c3ccccc3)C(=O)CC2)c[nH]1,1,-0.07
COCc1cc(N(C)C[C@H]2COCCO2)ncn1,10,-1.83
COc1ccc2c(c1)sc(/C=C/c1ccc(O)cc1)[n+]2C,-12,1.62
O=C(CC1(N2Cc3ccccc3C2=O)CCCCC1)NCCCc1ccccc1,-10,1.39
C[C@H](NC(=O)CCc1nncn1C)C1=CCCCC1,-3,0.51
CN(C)C1=NC2(CCN(Cc3ccc(S(C)(=O)=O)cc3)CC2)C(=O)N1,-1,0.19
CC(=O)NC(N1CCOCC1)(C(F)(F)F)C(F)(F)F,4,-0.56
CCOC(=O)[C@H](C)n1cnc(-c2ccccc2)c1-c1c(C)nn(C(C)C)c1C,-1,0.07
Cc1ccc([C@H](CNC(=O)COc2ccccc2C)N2CCCC2)o1,-6,1.04
O=C(NCc1ccc(N2CCCCC2)nc1)c1cnccn1,-15,2.76
CC(C)(C)C(=O)Nc1nnc([C@H]2CC(=O)N(c3ccc(OC(F)(F)F)cc3)C2)o1,-8,1.04
CC[C@@H](c1ccncc1)n1ccnc1-c1cccc2nonc12,-7,1.02

Structure (SMILES),% Inhibition [%],Z score
NC(=O)[C@@H]1CCCN1C(=O)c1cn(-c2cccc(Cl)c2F)nn1,-9,1.38
COc1cc(NC(=O)C(C)Oc2ccccc2)c(OC)cc1NC(=O)C(C)Oc1ccccc1 (stereo not given),-2,0.25
Oc1ccc(CNc2ccc3c[nH]nc3c2)cc1,-3,0.67
O=C(C[n+]1cccc2cc(Cl)ccc21)c1ccc2c(c1)CCCC2,6,-0.69
CCN(Cn1c(=S)sc2ccccc21)C1CCCCC1,-13,2.16
FC(F)(F)c1csc([C@H]2CCCN(CCc3ccncc3)C2)n1,-19,1.76
CC(C)CC(C)OCCC(=O)N1CCNC(=O)C1C (stereo not given),-10,0.99
N#CCCN(CC1CCC1)C(=O)CCOc1ccccc1Cl,-1,0.09
Cc1ccn2c(C(=O)N3CCC[C@H](c4cc(O)ncn4)C3)c(C)nc2c1,-4,0.49
C[C@H](NC(=O)Cn1cnnn1)c1nc(-c2ccccn2)no1,-20,1.98
CN1c2ccccc2N(C2CCN(C(=O)c3cccc(C#N)c3)CC2)S1(=O)=O,-7,1.06
Cc1csc(NC(=O)N2CCC[C@H]2C(=O)OC(C)(C)C)n1,5,-0.8
COc1ccc(C(=O)N[C@H]2CCCc3cn(C4CCCC4)nc32)nn1,-10,1.27
CCCn1ccnc1-c1c(-c2ccccc2)ncn1CC(=O)O,-12,1.15
Nc1ccccc1-c1nnc(-c2ccc(-c3ccccc3)cc2)o1,-8,0.97
Cc1ccc(Cl)c(S(=O)(=O)Nc2cnn([C@@H](C)C3CC3)c2)c1,-4,0.63
Cc1ccc(CC(=O)N(C)Cc2ncon2)cc1Cl,6,-0.74
CC(=O)NC[C@@H]1CN(C(=O)COc2cc(F)cc(F)c2)C[C@H]1c1cncn1C,-10,1.49
CCn1cnc2c(c1=O)CCN(C(=O)c1cc(C)n(-c3ccc(F)cc3)n1)C2,-14,1.95
CC(C)(C)c1ccc(CNc2nc3c(cnn3C(C)(C)C)c(=O)[nH]2)o1,-6,1.04
CN(Cc1nc2ccccc2c(=O)[nH]1)C(=O)c1cccnc1,-8,1.53
Cc1cccc(C)c1OCCN(C)CC#N,3,-0.42

Structure (SMILES),% Inhibition [%],Z score
Cc1oc2ncnc(OCC(=O)Nc3ccccc3F)c2c1C,-8,1.1
CNC(=O)[C@@H]1C[C@@H](NCc2cc(F)ccc2F)CN1C1Cc2ccccc2C1,3,-0.49
CCOC(=O)N1CCC(N2CCc3[nH]nc(CC)c3C2)CC1,-2,0.29
C[C@H](Oc1ccc(-c2ccccc2)cc1)C(=O)Nc1ccc(S(=O)(=O)N2CCN(C)CC2)cc1,-1,0.15
CC[C@@H](Cn1ccnc1)NC(=O)c1c[nH]c2cc(C)nn2c1=O,-17,1.63
CCCn1cnc(NC(=O)NC2CCN(Cc3ccccc3)CC2)n1,2,-0.39
CCc1onc(C)c1NC(=O)NCc1c(Cl)cccc1OC,-52,6.05
O=C(Nc1ccc(-c2cc[nH]n2)cc1)c1ccccc1Cl,-10,1.62
CO[C@@H](CS(=O)(=O)Nc1c[nH]c(=O)c(C)c1)C(C)C,-15,1.31
Cc1cc(C(=O)N2CCC([C@H]3[C@@H](Oc4ccccc4)CN3C(C)C)CC2)[nH]n1,8,-1.47
Oc1ccc([C@@H](O)Cn2cc(CCc3ccccc3)nn2)cc1,6,-1.06
CNc1cc(C(=O)N(C)[C@@H](C)c2nccs2)ccn1,-13,1.84
CC1CCCC1NC(=O)NCC(C)(O)C1CCCCC1 (stereo not given),-1,0.18
Cc1n[nH]c(C)c1NC(=O)CN1CCS(=O)(=O)C(C)C1C (stereo not given),-10,1.05
CCC1CN(C(=O)C2(C#N)CCCC2)CC1N(C)C (stereo not given),-3,0.35
CC(=O)Nc1c(-c2ccccn2)nsc1C(=O)NCc1cccs1,0,0.08
c1ccc(NCc2cccc(COC3CCOCC3)c2)nc1,-5,0.7
Cc1noc2ncnc(N[C@H](CO)Cc3c[nH]c4ccccc34)c12,-2,0.37
Cc1cnc([C@H](C)NC(=O)c2conc2C(C)(C)N)s1,35,-0.82
